# Test results taken from article PMC11685948.
# By UniProt entry, the sequences of proteins in these tests, tags left out. Where a name states a change or a piece, a line headed by the entry shows the natural chain unless it says otherwise. Chains listed by the source or under a name are the forms on record and can include a tag or linker. Residues count along the entry.
# UniProt Q7Z2W4: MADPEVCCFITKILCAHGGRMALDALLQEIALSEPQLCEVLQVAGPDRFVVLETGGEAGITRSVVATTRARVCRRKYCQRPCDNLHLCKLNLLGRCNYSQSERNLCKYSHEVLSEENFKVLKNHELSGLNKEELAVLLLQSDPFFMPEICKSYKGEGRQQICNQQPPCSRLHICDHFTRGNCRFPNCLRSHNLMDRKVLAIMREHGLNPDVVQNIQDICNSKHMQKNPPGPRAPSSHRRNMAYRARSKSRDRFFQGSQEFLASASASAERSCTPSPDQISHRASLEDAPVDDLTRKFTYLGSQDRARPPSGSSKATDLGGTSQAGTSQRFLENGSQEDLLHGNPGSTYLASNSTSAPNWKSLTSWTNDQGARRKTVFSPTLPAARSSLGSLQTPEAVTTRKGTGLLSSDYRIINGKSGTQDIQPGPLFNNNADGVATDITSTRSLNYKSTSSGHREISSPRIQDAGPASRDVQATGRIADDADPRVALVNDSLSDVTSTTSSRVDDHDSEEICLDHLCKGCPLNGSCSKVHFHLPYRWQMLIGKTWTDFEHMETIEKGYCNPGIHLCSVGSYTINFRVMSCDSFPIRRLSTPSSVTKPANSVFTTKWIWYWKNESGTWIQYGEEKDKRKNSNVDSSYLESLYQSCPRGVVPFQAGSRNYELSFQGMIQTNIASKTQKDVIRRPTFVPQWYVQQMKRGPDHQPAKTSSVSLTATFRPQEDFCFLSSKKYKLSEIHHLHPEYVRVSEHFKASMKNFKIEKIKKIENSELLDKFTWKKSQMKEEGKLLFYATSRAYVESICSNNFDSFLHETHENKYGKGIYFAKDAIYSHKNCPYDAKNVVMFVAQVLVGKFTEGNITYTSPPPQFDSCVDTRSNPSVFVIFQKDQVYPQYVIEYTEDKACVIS
# ZAP-L ΔRBD (HA-tagged): residues 255-902 of Q7Z2W4
# ZAP-S-3xHA (Q7Z2W4-2, form named): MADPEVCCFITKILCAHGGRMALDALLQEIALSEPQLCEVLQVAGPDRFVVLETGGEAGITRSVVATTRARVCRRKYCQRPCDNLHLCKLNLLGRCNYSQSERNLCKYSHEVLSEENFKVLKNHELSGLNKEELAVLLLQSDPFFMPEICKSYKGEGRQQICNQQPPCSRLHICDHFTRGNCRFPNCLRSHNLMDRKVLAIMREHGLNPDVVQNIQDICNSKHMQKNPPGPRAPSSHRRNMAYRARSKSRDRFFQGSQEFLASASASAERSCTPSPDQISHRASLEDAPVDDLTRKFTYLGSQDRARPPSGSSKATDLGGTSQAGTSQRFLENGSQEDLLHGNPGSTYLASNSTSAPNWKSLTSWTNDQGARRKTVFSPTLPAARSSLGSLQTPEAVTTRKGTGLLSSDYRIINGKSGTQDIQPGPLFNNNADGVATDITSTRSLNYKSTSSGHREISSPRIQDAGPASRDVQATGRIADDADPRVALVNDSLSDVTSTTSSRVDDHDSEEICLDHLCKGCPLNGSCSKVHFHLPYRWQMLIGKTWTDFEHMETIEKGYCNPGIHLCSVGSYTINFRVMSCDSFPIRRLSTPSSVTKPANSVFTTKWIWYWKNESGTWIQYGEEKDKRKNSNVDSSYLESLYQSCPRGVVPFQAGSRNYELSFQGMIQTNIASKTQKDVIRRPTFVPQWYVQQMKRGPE
# ZAP-X RNA_(null) (R74A, R75A, K76A) (Q7Z2W4, form named): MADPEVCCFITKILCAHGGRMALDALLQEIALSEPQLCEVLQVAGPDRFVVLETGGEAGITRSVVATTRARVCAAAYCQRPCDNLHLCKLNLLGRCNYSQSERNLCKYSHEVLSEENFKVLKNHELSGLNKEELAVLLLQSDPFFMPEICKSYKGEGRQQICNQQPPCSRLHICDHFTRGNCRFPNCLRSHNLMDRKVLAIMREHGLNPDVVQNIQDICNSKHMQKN
# UniProt Q14258: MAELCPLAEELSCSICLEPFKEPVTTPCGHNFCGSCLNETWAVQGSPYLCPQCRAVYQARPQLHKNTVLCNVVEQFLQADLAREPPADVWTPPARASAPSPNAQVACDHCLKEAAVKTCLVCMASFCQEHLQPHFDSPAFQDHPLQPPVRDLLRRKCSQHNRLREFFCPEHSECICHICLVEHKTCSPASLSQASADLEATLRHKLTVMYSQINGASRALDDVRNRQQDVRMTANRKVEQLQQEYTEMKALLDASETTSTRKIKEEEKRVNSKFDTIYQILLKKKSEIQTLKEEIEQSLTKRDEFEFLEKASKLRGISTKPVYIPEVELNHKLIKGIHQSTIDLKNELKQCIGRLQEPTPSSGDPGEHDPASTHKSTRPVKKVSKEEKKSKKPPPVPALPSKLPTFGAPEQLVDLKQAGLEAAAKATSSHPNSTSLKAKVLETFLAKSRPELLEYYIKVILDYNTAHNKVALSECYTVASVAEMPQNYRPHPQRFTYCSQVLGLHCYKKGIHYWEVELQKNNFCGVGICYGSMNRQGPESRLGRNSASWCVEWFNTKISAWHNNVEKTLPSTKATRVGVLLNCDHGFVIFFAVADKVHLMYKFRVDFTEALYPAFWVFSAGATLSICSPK
# Results are given in words; binding and its absence hold for the method and conditions named. In cells and extracts the contact can be indirect. Some results given as binding are weak or reduced against the parent protein; the word gives no strength.
# What was measured:
# [1] = target: ZAP-L-FLAG (human) (UniProt Q7Z2W4); assay: co-IP; anti-FLAG IP of doxycycline-induced ZAP-L-FLAG or ZAP-N-FLAG from RNase A-treated lysates of 293T ZAP-/- TRIM25-/- KHNYN-/- N4BP1-/- cells transfected with 3xHA-tagged ZAP proteins; washes with 500 mM KCl; western blot (Fig. 2d)
# [2] = target: ZAP-N-FLAG (human) (UniProt Q7Z2W4); assay: as above
# [3] = target: ZAP-D-3xHA (human) (UniProt Q7Z2W4); assay: co-IP; anti-HA IP of transfected 3xHA-tagged ZAP proteins, blot for TRIM25; text: endogenous TRIM25 of 293T cells; RNase A-treated lysates (Fig. 2f)
# [4] = target: ZAP-L ΔRBD (HA-tagged) (human) (UniProt Q7Z2W4); assay: as above
# [5] = target: ZAP-L-3xHA (human) (UniProt Q7Z2W4); assay: as above
# [6] = target: ZAP-N-3xHA (human) (UniProt Q7Z2W4); assay: as above
# [7] = target: ZAP-X RNA_(null) (R74A, R75A, K76A) (human) (UniProt Q7Z2W4); assay: as above
# [8] = target: ZAP-X-3xHA (human) (UniProt Q7Z2W4); assay: as above
binding [1],binding [2],Substance,further results
binds,binds weakly,ZAP-N-3xHA (from UniProt Q7Z2W4 1-254) (domain or fragment),–
binds,binds weakly,ZAP-S-3xHA (from UniProt Q7Z2W4-2 1-699),–
binds,binds weakly,ZAP-D-3xHA (from UniProt Q7Z2W4 1-511) (domain or fragment),–
binds,binds weakly,ZAP-L ΔRBD (HA-tagged) (from UniProt Q7Z2W4-1 255-902) (domain or fragment),–
–,binds weakly,ZAP-L-3xHA (from UniProt Q7Z2W4-1 1-902),–
binds,binds weakly,ZAP-X-3xHA (from UniProt Q7Z2W4 1-227) (domain or fragment),–
–,–,endogenous TRIM25 (from UniProt Q14258 1-630),binding [3]: binds; binding [4]: no binding; binding [5]: binds; binding [6]: binds weakly; binding [7]: binds; binding [8]: binds weakly
